Measurements as given in PubChem BioAssay AID686970 (National Center for Advancing Translational Sciences (NCATS), 2013).
The whole screen tested about 360,000 compounds, of which about 6,000 (1.7%) were called active. The inconclusive results got no clear call from the source; some entries with a clear call stand among them for comparison. The call rests on the fitted dose curve; in most records, active means well fitted cell-killing curve with a large enough effect; inconclusive means small, poorly fitted or top-dose-only effect, or effect the other way; inactive means flat fitted curve, though single readings scatter. No potency is given beside an inconclusive call; the fits are too rough.

Experiment: qHTS for induction of synthetic lethality in tumor cells producing 2HG: qHTS for the HT-1080-NT fibrosarcoma cell line;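 further: NT is the 2HG producing partner of a matched IDH1 knockdown line; nearly all actives have a fitted effect of over 55% in size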;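 on activity, negative = less viability: 0% = DMSO-treated cells and -100% = media-only wells without cells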
Settings: HT-1080-NT fibrosarcoma viability, CellTiter-Glo ATP luminescence, 48 h; activity, negative = less viability: at 46.1 µM (top of the series) unless noted
Procedure, shortened: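 Compounds were tested in concentration-response format on HT-1080-NT cells for 48 hours at 37 degrees C. Cell viability came from CellTiter-Glo luminescence; curves were classified by r2, response magnitude and activity.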
Potency means the concentration at half of the fitted maximal effect; tags describe the fitted curve by direction and shape.

| Structure (SMILES) | Potency | activity, negative = less viability |
| --- | --- | --- |
| O=C(c1ccc(Cl)cc1)c1cc([N+](=O)[O-])ccc1N1CCOCC1 | active: 1.46 µM |  |
| COc1ccc(NC(=O)c2c(-c3c(Cl)cccc3Cl)noc2C)cn1 | inconclusive [rising, single point] |  |
| O=C(O)c1ccc(N/N=C/c2cccc3nccnc23)cc1 | inconclusive [cytotoxic, single point] |  |
| COc1ccc(C(C(O)C(=O)c2c[nH]c3ccccc23)N2CCN(c3ccccc3)CC2)cc1 (stereo unspecified) | inconclusive [cytotoxic, single point] |  |
| Cc1nc(N2CCN(S(=O)(=O)c3ccccc3C#N)CC2)c2c(-c3cccs3)csc2n1 | inactive |  |
| Cc1ccc(S(=O)(=O)Nc2cccc(-c3ccc(N4CCCCCC4)nn3)c2)cc1C | inconclusive [cytotoxic, single point] |  |
| COC(=O)C1CCN(C(=O)[C@H](C)NC(=O)C2CC(=O)N(c3ccc(F)cc3)C2)CC1 (stereo partly specified) | inactive |  |
| CCc1cccc(NC(=O)COC(=O)/C=C/c2cccs2)c1 | inactive |  |
| O=C(OCC(=O)N1CCN(S(=O)(=O)c2ccc(Cl)cc2)CC1)c1ccc([N+](=O)[O-])o1 | inactive |  |
| Cc1cc(C)n(CCC(=O)N/N=C/c2ccc(Br)c([N+](=O)[O-])c2)n1 | inconclusive [cytotoxic, single point] |  |
| O=C(Nc1nc2ccccc2[nH]1)c1ccccc1F | active: 4.61 µM |  |
| Cc1nc2c(-c3ccccc3)cnn2c(N)c1-c1ccccc1 | inconclusive [cytotoxic, partial curve, poor fit] |  |
| COc1ccc(C(CNC(=O)c2cccc(NS(=O)(=O)c3ccc(Br)cc3)c2)N(C)C)cc1 (stereo unspecified) | inconclusive [cytotoxic, single point] |  |
| Nc1nonc1-n1nnc(C(=O)N/N=C/c2cccnc2)c1CSC1=NCCS1 | inconclusive [cytotoxic, single point] |  |
| COc1ccc(C(CNC(=O)c2oc3ccc(OC)cc3c2C)N2CCCC2)cc1 (stereo unspecified) |  | inconclusive: -9.77% [cytotoxic] |
| CN(c1cccc(NC(=O)CN(c2cccc(Cl)c2)S(=O)(=O)c2ccccc2)c1)S(C)(=O)=O | inconclusive [cytotoxic, single point] |  |
| CC(=O)NC(c1ccccc1)c1nc(-c2cccnc2)cs1 (stereo unspecified) | inactive |  |
| COc1ccc(NC(=O)C=C(C)C)cc1Cl | inactive |  |
| Cc1cc(Br)ccc1OCCCCN1CCCCC1 | active: 20.6 µM |  |
| COc1ccc(CCC(=O)NNC(=O)c2ccc(OC)cc2)cc1 | inactive |  |
| CCOc1ccc(-n2nnnc2SCC(=O)c2ccccc2)cc1 | inconclusive [cytotoxic, single point] |  |
| CCOC(=O)c1c(NC(=O)c2ccc(N3C(=O)[C@@H]4[C@H](C3=O)[C@H]3C=C[C@@H]4C3)cc2)sc2c1CCCC2 | inactive |  |
| CC(C)(C)C(=O)N1CCN(c2nc3ccccc3s2)CC1 | inconclusive [cytotoxic, single point] |  |
| CC(C)(C)NS(=O)(=O)c1cccc(S(=O)(=O)c2cccc(S(=O)(=O)NC(C)(C)C)c2)c1 | inconclusive [cytotoxic, partial curve] |  |

| Structure (SMILES) | Potency | activity, negative = less viability |
| --- | --- | --- |
| NCCCC[C@@H]1NC(=O)c2cc([N+](=O)[O-])cc(I)c2SC[C@@H](C(N)=O)NC(=O)[C@H](Cc2ccc(O)cc2)NC1=O | inactive |  |
| Cc1ccc(-c2nc3ccc(Cl)cn3c2Cc2ccccc2C(F)(F)F)cc1 | inconclusive [cytotoxic, single point] |  |
| CC(=O)Nc1cccc(-c2ccnc3c2CC(C(=O)Nc2cccc(N(C)C)c2)O3)c1 (stereo unspecified) | inconclusive [cytotoxic, partial curve] |  |
| Cn1nnnc1SCc1nc2scc(-c3ccc(Cl)cc3)c2c(=O)[nH]1 | inconclusive [cytotoxic, single point] |  |
| O=C(NCc1cccs1)C1CCN(c2nc3ccccc3o2)CC1 | inactive |  |
| CC1=NN(C(=O)c2cccc(Cn3nc(C)c([N+](=O)[O-])c3C)c2)C(O)(C(F)(F)F)C1 (stereo unspecified) | active: 7.94 µM |  |
| COc1ccc(-n2cc(CN[C@H]3CCCCNC3=O)c(-c3cccc(F)c3)n2)cc1 | inactive |  |
| CCC(=O)OCC(=O)[C@@]1(OC(=O)CC)[C@@H](C)C[C@H]2[C@@H]3CCC4=CC(=O)C=C[C@]4(C)[C@@]3(Cl)[C@@H](O)C[C@@]21C |  | inconclusive: 27.4% |
| CN1C(=O)C(O)(CC(=O)c2ccccn2)c2cc(Br)ccc21 (stereo unspecified) | inconclusive [cytotoxic, single point] |  |
| CN(C)C(=O)c1cccc(-c2cnc3sc(NCc4ccc5c(c4)OCO5)nn23)c1 | inconclusive [cytotoxic, single point] |  |
| CCOC(=O)[C@]12CCCC=C1N(CCc1ccc(OC)c(OC)c1)C(=O)[C@H](CC(=O)NCCCCc1ccccc1)C2 | inconclusive [cytotoxic, single point] |  |
| CCSc1nc(-c2ccccc2)nc(C(Cl)Cl)n1 | inconclusive [cytotoxic, single point] |  |
| COCCNC(=O)c1ccc(CS(=O)(=O)c2ccc(OC)cc2)o1 | inactive |  |
| CCOC(=O)c1ccc(/C=C2/C=C(c3ccccc3)N(c3ccc(Cl)c(C(=O)O)c3)C2=O)cc1 | active: 25.9 µM |  |
| O=C(O)C1C2C=CC(C2)C1C(=O)NCc1ccccc1 (stereo unspecified) | inconclusive [rising, single point] |  |
| Cc1ccc(-c2nc(C(=O)NC3CCCCCC3)no2)cc1 | inactive |  |
| Cc1ccc(NC(=O)C2(C)CCN2Cc2ccccc2OC(F)F)cc1 (stereo unspecified) | inconclusive [cytotoxic, single point] |  |
| CCCCNC(=O)C1(C)CCN1Cc1cccc2c(OC)cc(C(=O)OCC)cc12 (stereo unspecified) | inconclusive [cytotoxic, single point] |  |
| c1ccc(CSc2nnc(-c3ccncc3)o2)cc1 | inconclusive [cytotoxic, single point] |  |
| Cc1ccc(-n2ncc3c(SCc4cccc(C)c4)ncnc32)cc1 |  | inconclusive: 31.3% |
| O=C(c1ccc(Cl)c(Cl)c1)N1CCC(=O)N(C(COCc2cccc(C(F)(F)F)c2)Cc2ccccc2)CC1 (stereo unspecified) | inconclusive [cytotoxic, single point] |  |
| O=C(/C=C/c1ccc(S(=O)(=O)N2CCOCC2)cc1)NC(CO)C(O)c1ccc([N+](=O)[O-])cc1 (stereo unspecified) | inactive |  |
| COc1ccc(-n2c(SCC(=O)Nc3ccc(NC(C)=O)cc3)nc3c([nH]c4ccccc43)c2=O)cc1OC | inconclusive [cytotoxic, single point] |  |
| Clc1ccc(CN2C3=NCCN3c3ccccc32)cc1Cl | inconclusive [cytotoxic, single point] |  |

| Structure (SMILES) | Potency | activity, negative = less viability |
| --- | --- | --- |
| CCN(CC)C(=O)CSCC(=O)Nc1ccccc1 | inactive |  |
| Nc1nc(N)c2cc(CNc3ccc(Cl)c(Cl)c3)ccc2n1 | active: 1.84 µM |  |
| OC(CNc1ccccc1)COc1ccc(OCC(O)CNc2ccccc2)cc1 (stereo unspecified) | active: 20.6 µM |  |
| CC1=NOC(=O)/C1=C/c1ccc2c(c1)OCO2 | inactive |  |
| COc1ccc(-c2cc(CNC(=O)CCl)on2)cc1 |  | inconclusive: -49.1% |
| Cc1cc(O)c2c(c1)C(=O)[C@@]13Oc4c5c(c(O)c6c(O)cc(C)cc46)C(=O)C[C@H](O)[C@H]5[C@@H]1[C@@H](O)CC(=O)C3=C2O | inconclusive [cytotoxic, single point] |  |
| Cc1cc(C)c2nc(NNC(=O)c3ccc(S(=O)(=O)N4CCc5ccccc5C4)cc3)sc2c1 | inconclusive [cytotoxic, full curve] |  |
| O=C1S/C(=C\c2ccc(N3CCOCC3)o2)C(=O)N1Cc1c(F)cccc1Cl | inconclusive [cytotoxic, single point] |  |
| c1csc(-c2ccc3nncn3c2)c1 | inconclusive [rising, single point] |  |
| COc1ccc(Oc2ccc(/C=C/C(=O)c3ccc(O)cc3)cc2[N+](=O)[O-])cc1 | active: 23.1 µM |  |
| C[C@@H]1CN([C@@H](C)CO)C(=O)CCCn2nncc2CO[C@H]1CN(C)C(=O)Nc1ccccc1F | inactive |  |
| COC(=O)Cn1cc(/C=C/[N+](=O)[O-])c2ccccc21 | active: 18.4 µM |  |
| O=c1cc(CN2CCN(C/C=C/c3ccccc3)CC2)c2cc(O)ccc2o1 | active: 25.9 µM |  |
| Cc1ccc(C(=O)OCn2ncc(Cl)c(Cl)c2=O)cc1 | active: 5.8 µM |  |
| CC(C)Cc1cc(C(=O)Nc2cc(C(F)(F)F)ccc2Cl)no1 | inactive |  |
| CCCC(O)(CCC)C(=O)NN(C(=O)CCl)c1cccc(C)c1 | active: 6.51 µM |  |
| CC(C)N1CCC2(CC1)N=C(c1ccc3c(c1)OCO3)CC(c1cc(Cl)ccc1O)N2 (stereo unspecified) | inconclusive [cytotoxic, single point] |  |
| Cc1cc2oc(C(=O)NCc3ccccc3)cc(=O)c2cc1C |  | inconclusive: -34.5% [cytotoxic] |
| Cc1ccc2[nH]c(=O)c(CN(CC3COCCO3)C(=O)Nc3ccccc3F)cc2c1 (stereo unspecified) | inactive |  |
| Cc1cc(NC(=O)c2cccc(F)c2)ncc1NC(=O)c1ccco1 | inconclusive [cytotoxic, single point] |  |
| Cc1cc2ccccn2c1C(=O)c1ccccc1Br | inconclusive [cytotoxic, single point] |  |
| Oc1cc2c(c(Cl)c1O)CCNCC2c1ccccc1 (stereo unspecified) | inconclusive [cytotoxic, single point] |  |
| O=C(N[C@@H]1CCC(=O)N(CC[C@H](Sc2ccccc2)c2ccccc2)CC1)OCc1ccccc1 | inconclusive [cytotoxic, single point] |  |
